# Where “and” joins values, the source holds several entries; their conditions need not be identical. Equal entries are not always repeated. In all, about 410,000 compounds went through this assay and about 5,000 (1.2%) were called active. The shares of active, inactive and inconclusive entries below differ from those in the screen. Calls follow the shape of the dose curve; as a rule, active = well fitted inhibition curve with a large enough effect; inconclusive = small, poorly fitted or top-dose-only effect; inactive = no such curve, though single readings can be large or run the other way. Potencies beside an inconclusive call are fits to weak or partial responses and may not hold up.
# Experiment: qHTS for Inhibitors of TGF-b; also: nearly all actives have a fitted effect of over 65% in size
# Conditions: HepG2 CAGA-GFP TGF-b/SMAD3 reporter, GFP fluorescence, 18 h, TGF-beta stimulated, 500 pg/mL final; series mostly up to 46.1 µM; activity, negative = inhibition: at the top concentration
# How it was run: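 First, reporter cells (HEPG2 CAGA-GFP) rested 2 h at 37 degrees C. Next, compounds were pinned in and TGF-beta added to 500 pg/mL final. After 18 h, GFP was imaged per cell and summed per well.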
# % is scaled to controls: 0 for no effect and ±100 for the full control effect; potency is read from the fitted curve at half-maximal effect; tags tell the direction and shape of the fitted curve.
Compound,"activity, negative = inhibition",Potency
Cc1ccsc1/C=C1\SC(N2CC(C)OC(C)C2)=NC1=O (stereo not drawn),inactive: -30.3%,–
CC(C)NC(=O)c1onc(CSc2ccc(F)c(F)c2)c1C(=O)NC(C)C,–,"inconclusive: 3.16 µM [inhibitor, single point]"
C[C@H](NC(=O)c1[nH]cnc1C(=O)N[C@@H](C)CO)c1ccccc1,inactive: 0.309%,–
O=C(C1CCC(CNS(=O)(=O)c2cccs2)CC1)N1CCN(c2ccc(Cl)cc2)CC1 (stereo not drawn),–,"inconclusive: 1.78 µM [inhibitor, full curve] and inconclusive: 5.62 µM [inhibitor, partial curve, poor fit]"
CC(C)c1ccc(NC(=O)c2cc(S(=O)(=O)NC3CCCCC3)ccc2F)cc1,–,"inconclusive: 25.1 µM [inhibitor, partial curve, poor fit]"
COc1ccc(Cl)cc1NC(=O)COC(=O)CC(C)(C)CC1=NS(=O)(=O)c2ccccc2N1,–,"inconclusive: 35.5 µM [inhibitor, single point]"
CC(=O)N1c2ccccc2CCc2ccc([N+](=O)[O-])cc21,inactive: 0.176%,–
Cc1onc(-c2ccccc2)c1-c1nnc(CN2CCN(S(=O)(=O)c3ccccc3F)CC2)o1,–,"inconclusive: 0.708 µM [inhibitor, full curve, poor fit]"
COc1ccccc1CNC(=O)C(=O)NCCC1CCCCN1S(=O)(=O)c1ccc(C)cc1 (stereo not drawn),–,"inconclusive: 5.62 µM [inhibitor, single point]"
CCOc1ccc(NC(=S)NC(=O)c2c(Cl)c(C)nn2C)c([N+](=O)[O-])c1,inactive: -5.9%,–
O=c1cc2nc(-c3ccccc3F)nc(SCc3ccc(Br)cc3)n2[nH]1,–,"inconclusive: 17.8 µM [inhibitor, single point]"
CCCNC(=O)c1ccc(N2CCC3(CC2)CC(c2cccc(Br)c2)=NO3)c(NC(=O)c2cccc(OC)c2)c1,inactive: -3.32%,–
O=NN(CC(=O)NN=CC=Cc1ccccc1)CC(=O)NN=CC=Cc1ccccc1,inactive: 6.15%,–
COc1ccc(-c2cc(C(=O)N3CCN(c4ccccc4O)CC3)c3ccccc3n2)cc1OC,–,"inconclusive: 35.5 µM [inhibitor, single point]"
O=C1C=C(N(CCO)CCO)C2(CCCCC2)O1,–,"inconclusive: 0.112 µM [inhibitor, full curve, poor fit]"
CC(Nc1nc(N2CCCC2)nc2ccccc12)c1ccccc1 (stereo not drawn),–,"inconclusive: 15.8 µM [inhibitor, single point]"
Cc1cc([N+](=O)[O-])ccc1NC(=S)NC(=O)Cc1ccccc1,–,"inconclusive: 1.78 µM [inhibitor, full curve, poor fit]"
C=CC(=O)Nc1sc2c(c1C(N)=O)CCCC2,–,active: 15.8 µM
CCN(CC)CCN(C(=O)/C=C/c1cccs1)c1nc2ccc(C)cc2s1,inactive: 3.21%,–
C=CCNC(=S)NCCCCC1NC(=S)N(CC=C)C1=O (stereo not drawn),–,"inconclusive: 35.5 µM [inhibitor, partial curve, poor fit]"
CCc1nc2ccccc2n1CCCCOc1ccccc1C,–,"inconclusive: 35.5 µM [inhibitor, single point]"
CN(C)CC(O)COC(c1ccc(Cl)cc1)c1ccc(Cl)cc1 (stereo not drawn),–,"inconclusive: 15.8 µM [inhibitor, single point]"
O=C(NNS(=O)(=O)c1ccc(F)cc1)c1cc(Cl)ccc1O,–,"inconclusive: 35.5 µM [inhibitor, single point]"

Compound,"activity, negative = inhibition",Potency
Cc1nc2ncc(Br)cc2[nH]1,inactive: -11.2%,–
CC(=O)c1cccc(Nc2nc(-c3cccc([N+](=O)[O-])c3)cs2)c1,inactive: -15.9%,–
Cc1ccc(C)c(CN2CCCN(Cc3cc(C)ccc3C)S2(=O)=O)c1,–,"inconclusive: 10 µM [inhibitor, partial curve, poor fit]"
Cc1cccc(N2CCN(C(=O)CCCn3c(=O)c4cccn4c4cccnc43)CC2)c1C,inactive: -7.67%,–
Cc1ccc(CNC(=O)C2(C(F)(F)F)C/C(=C\CCO)CCCO2)o1 (stereo not drawn),inactive: -17.7%,–
Cc1ccc2c(c1)NC(=O)C(CC(=O)NCCCN1CCN(c3cc(Cl)ccc3C)CC1)O2 (stereo not drawn),–,"inconclusive: 35.5 µM [inhibitor, single point]"
Cc1ccc(O)c(Cn2nnc3ccccc32)c1,–,"inconclusive: 35.5 µM [inhibitor, single point]"
Cc1c(C(=O)NCCN2CCCC(O)C2)oc2c(F)cccc12 (stereo not drawn),inactive: -1.72%,–
CCCC(O)c1nc2ccccc2n1CCCCOc1ccc(OC)cc1 (stereo not drawn),–,"inconclusive: 8.91 µM [inhibitor, partial curve, poor fit]"
COc1ccc(CNC[C@@H](CCCCN(C)Cc2ccc(OC)cc2)N2C[C@H](c3ccccc3)N(CCc3ccc(Cl)c(Cl)c3)C(=O)C2=O)cc1,–,"inconclusive: 35.5 µM [inhibitor, single point]"
Cc1cc(=O)[nH]c(SCC(=O)N2CCCC2)n1,inactive: -29.9%,–
Cc1ccc(-c2csc(-c3c[nH]c4ccccc34)n2)c(C)c1,–,"inconclusive: 25.1 µM [inhibitor, single point]"
COc1ccc(C(=O)/C=C/c2ccc(OC)c(CN3CCOCC3)c2)cc1,–,"inconclusive: 22.4 µM [inhibitor, single point]"
O=S1(=O)Nc2c(ccc3cccnc23)-c2ccccc21,–,active: 1.26 µM
COc1ccc(-c2ccc3c(c2)S(=O)(=O)c2cccc(C(=O)NC4CC4)c2C3=O)cc1OC,–,"inconclusive: 3.98 µM [inhibitor, full curve]"
CCn1c2c(c(=O)n3ncc(C(=O)Nc4cccc(Cl)c4C)c13)CN(Cc1ccc(OC)cc1)CC2,inactive: -6.07%,–
Cc1ccccc1OCC(O)Cn1c(NCc2ccco2)nc2c1c(=O)n(C)c(=O)n2C (stereo not drawn),–,"inconclusive: 35.5 µM [inhibitor, single point]"
Cc1ccc(CSc2ccc(-c3ccco3)nn2)cc1,–,"inconclusive: 17.8 µM [inhibitor, partial curve, poor fit]"
C=C(C)CSc1nc2sc3c(c2c(=O)n1CCCC)CCCC3,–,"inconclusive: 17.8 µM [inhibitor, single point]"
Cc1cc(C)cc(OCC(=O)N(Cc2ccco2)c2c(N)n(Cc3ccccc3)c(=O)[nH]c2=O)c1,inactive: 5.08%,–
CCc1ccccc1NC(=O)Cn1c(=O)nc(-c2ccccc2)c2ccccc21,inactive: 4.09%,–
O=C(CN1C(=O)C(=O)N(CCC2=CCCCC2)C1=O)c1c[nH]c2ccccc12,–,"inconclusive: 31.6 µM [inhibitor, single point]"
CCN1C(C(=O)c2ccccc2)=C(OC(=O)C(C)C)c2ccccc2S1(=O)=O,–,active: 11.2 µM

Compound,"activity, negative = inhibition",Potency
O=C(CCNS(=O)(=O)c1ccc2c(c1)CCN2C(=O)C1CC1)N1CCN(c2ccc(F)cc2)CC1,–,"inconclusive: 17.8 µM [inhibitor, single point]"
COc1ccc(C2c3[nH]c4ccccc4c3CCN2Cc2cccn2-c2ncccn2)cc1C (stereo not drawn),inactive: 0%,–
Cc1ccnc(N2CCCC(C(=O)Nc3ccc(C)c(C)c3)C2)n1 (stereo not drawn),inactive: 0.806%,–
COC(=O)c1ccc2nc(Nc3nc4ccc(F)cc4s3)sc2c1,–,active: 17.8 µM
Cc1cccc(C)c1-c1ccc(CN2C(CC(C)C)C(=O)N(Cc3cn(CCO)nn3)CCS2(=O)=O)cc1 (stereo not drawn),–,"inconclusive: 35.5 µM [inhibitor, single point]"
COC(=O)Cn1c(CN2CCN(c3ccc(OC)cc3)CC2)nc2c1c(=O)[nH]c(=O)n2C,–,"inconclusive: 0.316 µM [inhibitor, full curve, poor fit]"
CCOc1ccc(NC(=O)c2cc(S(=O)(=O)NC3CCCC3)ccc2F)cc1,–,"inconclusive: 15.8 µM [inhibitor, single point]"
CCOC(=O)c1c(S(=O)(=O)NCC(=O)Nc2cccc(CC)c2)c(C)n(C)c1C,inactive: 11.2%,–
CC(C)c1ccc(NC(=O)C(c2ccccc2)N2CC(=O)Nc3ccccc32)cc1 (stereo not drawn),–,"inconclusive: 10 µM [inhibitor, partial curve, poor fit]"
CCCCNc1ncnc2oc(-c3ccco3)c(-c3ccco3)c12,–,"inconclusive: 22.4 µM [inhibitor, single point]"
C[C@@H]1C=CC(=O)O[C@@H]1c1ccc(Cl)cc1,–,"inconclusive: 10 µM [inhibitor, partial curve, poor fit]"
CC(NCC(=O)Nc1cc(S(=O)(=O)N2CCOCC2)ccc1Cl)c1ccc(Cl)cc1Cl (stereo not drawn),–,"inconclusive: 22.4 µM [inhibitor, single point]"
CN(CCCN(Cc1ccc(Cl)cc1)c1ccc(Br)cn1)C(=S)NCCCc1cnc[nH]1,–,"inconclusive: 35.5 µM [inhibitor, single point]"
S=c1[nH]c2cc(-c3ccccc3)ccc2o1,inactive: 0.552%,–
Cc1ccccc1Nc1nnc(SCC(=O)c2c(N)n(C3CC3)c(=O)[nH]c2=O)s1,–,"inconclusive: 3.16 µM [inhibitor, single point]"
CC(C)Cn1nc(NS(=O)(=O)c2cccc3nonc23)c2cc3ccccc3nc21,inactive: -1.17%,–
Cc1nn(Cc2ccccc2Cl)c(C)c1C(=O)NCC(c1cccs1)N1CCOCC1 (stereo not drawn),inactive: -24.7%,–
CN(C)CCNC(=O)c1cccc(-c2cnc3c(NC=O)cc(-c4cccc(F)c4)cn23)c1,–,active: 20 µM
CCOC(=O)c1scc(-c2ccc(C)cc2)c1S(=O)(=O)Nc1cc(Cl)ccc1OC,inactive: -16.2%,–
C[C@H](CO)N1C[C@H](C)[C@@H](CN(C)S(=O)(=O)c2ccc(F)cc2)Oc2ccc(NC(=O)C3CCCCC3)cc2C1=O,inactive: -0.694%,–
O=C(CNC(=S)N(Cc1ccccc1F)C1CCCCC1)NCC1CCCO1 (stereo not drawn),inactive: -27.4%,–
COc1cccc(CNC(=O)Cn2cc3c(n2)-c2c(oc(C(=O)N4CCCC4)c2C)CC3)c1,–,"inconclusive: 17.8 µM [inhibitor, partial curve, poor fit]"
